Laboratory results as given in PubChem BioAssay AID504832 (National Center for Advancing Translational Sciences (NCATS), 2011).
Hit rate of the full screen: of about 310,000 compounds, about 18,000 (5.8%) were called active. This list was built around the results that the source calls inconclusive (neither active nor inactive); the mix of calls is not that of the screen. Calls come from the whole dose curve; as a rule, active = well fitted inhibition curve with a large enough effect; inconclusive = small, poorly fitted or top-dose-only effect, or another doubt; inactive = no such curve, though single readings can be large or run the other way. Potencies of inconclusive entries are left out as doubtful fits.

Experiment: Primary qHTS for delayed death inhibitors of the malarial parasite plastid, 48 hour incubation
Conditions: P. falciparum luciferase growth in erythrocytes; series mostly up to 28.7 µM
Procedure, shortened: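 Here the parasites carry a stable luciferase gene and grow inside erythrocytes in Albumax-based RPMI medium with compound for one erythrocytic cycle. Activity is scored as loss of luminescent signal.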
% is set by controls: 0 for no effect and ±100 for the full control effect; potency is the fitted concentration of half-maximal effect; tags give direction and shape of the fitted curve.

| Structure (SMILES) | Potency | activity change, negative = inhibition |
| --- | --- | --- |
| O=S(=O)(c1ccc(SCCO)nc1)N1CCOCC1 | inactive |  |
| Cc1ccc(S(=O)(=O)N2CCN(C(=O)CSc3ncc(C(F)(F)F)cc3Cl)CC2)cc1 | inconclusive [inhibitor, single point] |  |
| Cc1cc(C)c(NC(=O)C2CCCN2CCC(C)C)c(C)c1 (stereo unspecified) | inconclusive [inhibitor, partial curve, poor fit] |  |
| COc1cccc(C(=O)Nc2nnc(SCC(=O)NC3CC3)s2)c1 | inactive |  |
| Cn1c(C=O)c(C#Cc2ccccc2)c2ccccc21 | active: 11.7 µM |  |
| CCCC[C@]12Cc3c(ccc4ccccc34)C(O1)C1=C(O2)C(=O)c2ccccc2C1=O | active: 1.51 µM |  |
| COc1cc2c(cc1OC)CN(C(=O)Cn1ccccc1=O)CC2 | inactive |  |
| COC(=O)C1=C(c2ccc(F)cc2F)C[C@@H]2CC[C@H]1N2C(=O)NCCOc1ccc(OC)cc1 | active: 10.4 µM |  |
| O=C(c1ccc(F)cc1)N(C(=O)c1ccc(F)cc1)c1ncccn1 | inconclusive [inhibitor, single point] |  |
| Cc1cc(-n2c(SCC(=O)NCCC3=CCCCC3)nc3n[nH]c(C)c3c2=N)ccc1Cl | inconclusive [inhibitor, partial curve, poor fit] |  |
| CCOc1ccc(S(=O)(=O)N2CCCCC2)cc1NS(=O)(=O)c1cccs1 | inconclusive [inhibitor, single point] |  |
| CCCCOc1ccc(CSc2nc(C)[nH]c2[N+](=O)[O-])cc1[N+](=O)[O-] | inconclusive [inhibitor, single point] |  |
| O=C1C=C(c2cc3ccccc3o2)C[C@@H](c2ccc(F)cc2)C1 | inconclusive [inhibitor, single point] |  |
| COc1ccc(N2CCN(C(CNC(=O)Oc3ccccc3)c3cccnc3)CC2)cc1 (stereo unspecified) | inconclusive [inhibitor, partial curve, poor fit] |  |
| CC(C)C(=O)Nc1ccc2c(c1)nc(CCN1CCN(c3ccccc3)CC1)n2C | inconclusive [inhibitor, single point] |  |
| S=C(NCCc1ccc(Cl)cc1)Nc1ccc(Cl)cc1Cl | inconclusive [inhibitor, single point] |  |
| CC(C)(C)SCCNC(=O)CN1C(=O)c2ccccc2S1(=O)=O | inconclusive [inhibitor, single point] |  |
| O=C1N(Cc2cccc(Cl)c2)C[C@@H]2C[C@@H](c3c[nH]c4ccccc34)N3CCC[C@@]123 | inconclusive [inhibitor, full curve] |  |
| N#Cc1c(NC(=O)c2ccco2)sc2c1CCC2 | inconclusive [inhibitor, single point] |  |
| COc1ccc(C2=NOC(Cn3nc(C(=O)NCc4ccc(OC(F)(F)F)cc4)cc3-c3ccccc3)C2)cc1 (stereo unspecified) | active: 10.4 µM |  |
| CC1(C)CC2(CC(c3ccccc3F)c3cc(Cl)c(O)cc3O2)NC(=S)N1 (stereo unspecified) | inconclusive [inhibitor, single point] |  |
| Nc1nccnc1C(=O)OCC(=O)NC1CCCc2ccccc21 (stereo unspecified) | inactive |  |
| CCN(CC)CCCn1c2c(c(SCC(=O)Nc3ccc4c(c3)OCO4)nc1=O)CCC2 | inconclusive [inhibitor, single point] |  |
| O=C(COc1ccccc1)N(Cc1ccco1)C1CCS(=O)(=O)C1 (stereo unspecified) | inactive |  |

| Structure (SMILES) | Potency | activity change, negative = inhibition |
| --- | --- | --- |
| COC(=O)c1[nH]nc(C(=O)OC(C)(C)C)c1-c1ccccc1 | inactive |  |
| Fc1ccc(C(Nc2ccccn2)c2c[nH]c3ccccc23)cc1 (stereo unspecified) | inconclusive [inhibitor, single point] |  |
| CCOC(=O)C1=C(O)CSC1=Nc1ccc(Cl)cc1 | active: 10.4 µM |  |
| O=C(Nc1cccc2ccccc12)c1ccc([N+](=O)[O-])cc1 | inactive |  |
| O=C(COc1ccc(Cl)cc1Cl)NNC(=S)Nc1ccc(F)cc1 | inactive |  |
| CSc1c(C#N)c(N)nc2sc(C(=O)c3ccc(Cl)c(Cl)c3)c(N)c12 | inconclusive [inhibitor, single point] |  |
| COc1ccc(Cl)cc1S(=O)(=O)Nc1noc2ccccc12 | inactive |  |
| Cc1ccc(NC(=O)c2cc(C)nc3ccccc23)c(C)c1 | inconclusive [inhibitor, partial curve, poor fit] |  |
| CCOC(=O)c1cc(-c2csc(-c3cccc(Cl)c3)n2)on1 | inconclusive [inhibitor, partial curve, poor fit] |  |
| COc1ccc(-n2nc(C(=O)NCC(=O)N3CCOCC3)c3ccccc3c2=O)cc1Cl | inactive |  |
| CCOC(=O)N1CCN(C(=O)CCn2c(=O)[nH]c3ccsc3c2=O)CC1 | inactive |  |
| CCc1ccc(NC(=O)C(=O)NNC(=O)c2cccs2)cc1 | inactive |  |
| COc1ccc(OCC(O)CN(CC(O)COc2ccc(OC)cc2)c2cccc(O)c2)cc1 (stereo unspecified) | inconclusive [inhibitor, partial curve] |  |
| O=C(CCc1cccc(Cl)c1)NC1CCCN(Cc2ccccc2F)C1 (stereo unspecified) | inconclusive [inhibitor, single point] |  |
| CCOc1c(Cl)cc(Cl)cc1CNCCNCCO | inconclusive [inhibitor, partial curve] |  |
| Cc1nn(CC(=O)Nc2ccc3c(c2)CCC3)c(C)c1[N+](=O)[O-] | inactive |  |
| CCCCn1c(N)c(N(CC)C(=O)c2ccc(C#N)cc2)c(=O)[nH]c1=O | inactive |  |
| O=C(COc1ccccc1)N/N=C/c1sc(=O)n(Cc2cccc(C(=O)O)c2)c1Cl | inconclusive [inhibitor, partial curve] |  |
| CCOc1ccc(/C=N/NC(=O)c2ccccc2Cl)cc1CN1CC2CC(C1)c1cccc(=O)n1C2 (stereo unspecified) | active: 8.28 µM |  |
| COc1ccc2[nH]c3c(c2c1)CCN1C(=O)N([C@@H](C)C(=O)NCc2ccccc2)C(=O)[C@]31C | inconclusive [inhibitor, single point] |  |
| c1ccc(CNc2c3ccccc3nc3ccccc23)cc1 | active: 2.94 µM |  |
| O=C(Nc1ccc(N2CCN(C(=O)c3ccccc3)CC2)c(Cl)c1)c1cccnc1 | inconclusive [inhibitor, single point] |  |
| Clc1ccc(CNCCc2ccc3c(c2)OCO3)cc1 |  | inactive: 10.7% [at 0.00184 µM] |
| CC(=O)CCc1oc2ccc(NC(C)=O)cc2c1-c1ccc(C)o1 | inconclusive [inhibitor, partial curve, poor fit] |  |

| Structure (SMILES) | Potency | activity change, negative = inhibition |
| --- | --- | --- |
| COc1ccc(N(C(=O)C2CCCCC2)S(=O)(=O)c2cccc3cccnc23)cc1 | inconclusive [inhibitor, single point] |  |
| COc1ccc(NC(=O)c2ccc3c(c2)N(C)CCS3)cc1 | inactive |  |
| Cc1cc(C)c(S(=O)(=O)N2CCN(C(=O)c3ccc4c(c3)OCO4)CC2)c(C)c1 | inconclusive [inhibitor, partial curve] |  |
| Nc1c(C(=O)Nc2ccc3c(c2)OCCO3)nnn1Cc1cccc(F)c1 | inactive |  |
| O=C(CN1C(=O)NC2(CCCCCC2)C1=O)Nc1cccc(F)c1 | inconclusive [inhibitor, single point] |  |
| Cc1ccc(S(=O)(=O)N2CCN(C(=O)c3cc4c(C)nn(-c5ccccc5C)c4s3)CC2)cc1 | active: 4.65 µM |  |
| O=C(CSc1ccc(-c2ccccn2)nn1)NCc1ccc(Cl)cc1 | inconclusive [inhibitor, full curve, poor fit] |  |
| CCOc1ccc(S(=O)(=O)Nc2cc(SCC(=O)O)c(O)c3ccccc23)cc1 | active: 10.4 µM |  |
| COc1ccc(CN2C(=NC(=O)C3CCCCC3)SC3CS(=O)(=O)CC32)cc1 (stereo unspecified) | inconclusive [inhibitor, partial curve] |  |
| C[C@@H](NC(=O)[C@@H]1Cc2ccccc2CN1C(=O)OC(C)(C)C)C(=O)NC1CCCCC1 | inconclusive [inhibitor, single point] |  |
| Cc1ccc2c(CN3CCN(S(=O)(=O)c4ccccc4C(F)(F)F)CC3)cc(=O)oc2c1 | active: 11.7 µM |  |
| COc1ccc(N=Cc2c(C)[nH][nH]c2=O)cc1 | inactive |  |
| CCC(=O)Nc1nnc(SCC(=O)Nc2ccc3c(c2)OCCO3)s1 | inactive |  |
| Cc1ccccc1-c1nsc(SCC(=O)Nc2ccc3c(c2)OCO3)n1 | inconclusive [inhibitor, single point] |  |
| CN(C)c1nc(Nc2ccc(Cl)c(Cl)c2)nc(N(C)C)n1 | inactive |  |
| C/C=C(\C)C(=O)OC1c2c(ccc3ccc(=O)oc23)OC(C)(C)C1OC(C)=O (stereo unspecified) | active: 8.28 µM |  |
| Cc1ccc(S(=O)(=O)NCCS(=O)(=O)N2CCN(c3ccccc3)CC2)cc1 | inactive |  |
| COc1cccc(C(=O)O/N=C(\N)c2ccc(C)cc2)c1 | inconclusive [inhibitor, single point] |  |
| CCc1ccc(O)c(CNCCNCc2cc(CC)ccc2O)c1 | active: 6.57 µM |  |
| O=C(Cc1ccc(NS(=O)(=O)c2ccc(Cl)c(Cl)c2)cc1)NCCN1CCOCC1 | inconclusive [inhibitor, single point] |  |
| Cc1ccc(Nc2nc(-c3sc(NC(=O)c4ccccc4)nc3C)cs2)cc1 | inconclusive [inhibitor, partial curve] |  |
| Cc1ccc(CNC(=O)c2cc3c(=O)n4ccccc4nc3n(Cc3ccco3)c2=N)cc1 | inconclusive [inhibitor, partial curve] |  |
| COc1ccc(-c2nnc(SCc3nc4ccccc4s3)n2C(C)C)cc1 | inconclusive [inhibitor, single point] |  |
